The labels stand for the following.
T1: UNK ZnF1-3 (human, UniProt Q9C0B0 31-174)
T1 sequence: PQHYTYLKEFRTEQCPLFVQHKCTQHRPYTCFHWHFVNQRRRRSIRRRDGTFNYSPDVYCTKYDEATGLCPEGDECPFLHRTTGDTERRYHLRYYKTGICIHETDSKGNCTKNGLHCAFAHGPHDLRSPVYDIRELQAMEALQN

B1: 58143647_58144814_1295_CDS_ENSG00000068097_ENST00000184956|human|control|control (ssRNA)
RNA: GGGAGUUCUACAGUCCGACGAUCAAAAGCUGACCAGUAGCCAUAAAGAACUUUUUUUUCUAUCGAUUUUAUAGUAGAAAGAAAACAAACUAAGGCUCCUUGGCGAACUUUAGCUUGGUAAGACCUCAUUUUACUCUGCAUGCCCAACAGAGGAUUGAGCAUCA
B2: 90990506_90993036_620_3pUTR_ENSG00000104320_ENST00000265433|human|control|control (ssRNA)
RNA: GGGAGUUCUACAGUCCGACGAUCUUCUGGCUUUACAAUUGGACGUCCACAAAUGAGUGCACAUAUUGUUUUAAUGGUAACUUUCACUGAUACCAUGACAAGGUGAGUGCAUUCUUCUGUCCAAUUGUUUACAGUAAAUCCUCCCAACAGAGGAUUGAGCAUCA
B3: chr17:56552419:56552420:-_ENSMUSG00000013236_ENSMUST00000086828|mus_mus|mus_mus_mus_hu_False|8_58 (ssRNA)
RNA: GGGAGUUCUACAGUCCGACGAUCAAAAAAUACACUAUUUAAAAAAAAUGAAAUGUCACGGGAUACAGUUACACUGACACUAUUAAAAGAAAGCUGGAUUCUGGUCCCAGCCCAGUGUCCCCAGGCUGAGUGCGGAAGAGGAGCCAACAGAGGAUUGAGCAUCA
B4: chr10:62545423:62545424:+_ENSG00000170312_ENST00000395284|hu_hu|motif|central (ssRNA)
RNA: GGGAGUUCUACAGUCCGACGAUCAAACUCAAAGAUGAGAUAUAACCUGGAAUCCUGCAUAAGCACAUCCUGAAGACUGACGGUAUUUGGAUGACGAAGUUCCUUUAAUAGAGAAAUUUCCCGAAUUGCAGUACUAGGAACCCCCAACAGAGGAUUGAGCAUCA
B5: 132269891_132270011_1185_3pUTR_ENSG00000072364_ENST00000265343|human|control|control (ssRNA)
RNA: GGGAGUUCUACAGUCCGACGAUCGCUUCAGCUCAGUCAUGCUGUUGCCAUGGGAUUGGCUGCUGUAGUGCUCAGAGGACAGCUUUGGUUCCAUGGACUCCUGUCCGUCCAUGGGCCGCACAUAGGCAGUGGGUUUCUGUAACACAACAGAGGAUUGAGCAUCA
B6: 22161204_22161324_3265_3pUTR_ENSG00000136237_ENST00000344041|human|control|control (ssRNA)
RNA: GGGAGUUCUACAGUCCGACGAUCAAUCAUAUUAUGUCCAAUAAAAGAUAAGAGCCUGCUUAGAAGUAUAAAGAAAAUCCCCAGAAAUUAAACAAUGAGUCAAUUUCUUAAAGAUUACUAUUUUUCCUUACUGGCAAAGCAACUCAACAGAGGAUUGAGCAUCA
B7: chr1:66461069:66461070:+_ENSMUSG00000015222_ENSMUST00000114013|mus_hu|FALSE|FALSE (ssRNA)
RNA: GGGAGUUCUACAGUCCGACGAUCCUGACUGUCCGUUUUUACAAUGACAUGGUUUUCAUCAGUUACCGGGGGCAAGCCAGUACGACUAUCCUCAACCACAGUCUCUGAUGGGACUGAUUUCCUCCUGGCAACCUCAGCAUCUGCCAACAGAGGAUUGAGCAUCA
B8: chrX:71549762:71549763:+_ENSMUSG00000019087_ENSMUST00000019231|mus_mus|mus_mus_mus_hu_False|1_38 (ssRNA)
RNA: GGGAGUUCUACAGUCCGACGAUCAAACCCGUGUACUUCUUAUUGUUAGCACAACAUCACCAGAAAACGAUAACGACAGCCAAGCAGGACAGACAGUCAAGUAGUCUUUCCACACUCCCAAACUCAGGGAGCCCUAUAGUUCAUCAACAGAGGAUUGAGCAUCA
B9: chr11:4127340:4127341:+_ENSG00000167325_ENST00000300738|hu_mus|hu_hu_hu_mus_False|28_78 (ssRNA)
RNA: GGGAGUUCUACAGUCCGACGAUCGGCAUAGUCAGGGUGCUUCGUGGUCAAGGUCGCAGCUGUUUCAGCAGCCAGGGUGUCCAGUUCCACUGUGGUGACCCCACUAUACAAGCCUUGGAUUACUUUCAUGGUGAUCUGAGCAGGCAACAGAGGAUUGAGCAUCA
B10: chr12:493273:493274:-_ENSG00000073614_ENST00000399788|hu_mus|hu_hu_hu_mus_False|38_108 (ssRNA)
RNA: GGGAGUUCUACAGUCCGACGAUCUUUUCUCUCUACCACAGGGAUCUUCAAUGUAGAUCCUUGAAGUUCCCAAAAUUUUGCCAGUUGAUCCAAGAAGUCCAAUCUCACUCUAGUCAUUGCCUCAAGUUCAUUCAGGCGCUGGACCAACAGAGGAUUGAGCAUCA
B11: 92021576_92025768_2689_CDS_ENSG00000001629_ENST00000265742|human|control|control (ssRNA)
RNA: GGGAGUUCUACAGUCCGACGAUCAUCAGGGUCUGGAGGAUUACUGAGUAGACUGUGAACAUCUCCUCGACGACGUUGUCUGUGCCUCCUCCGAUACUGAAAUUCAGCAUAUUCCUCUGGUGAUGCAAAUCCUAAAUAUUCCCACAACAGAGGAUUGAGCAUCA
B12: chr10:71917581:71917582:-_ENSG00000079332_ENST00000373241|hu_mus|motif|central (ssRNA)
RNA: GGGAGUUCUACAGUCCGACGAUCCUCAACUUUGGAUUCCAUGAGACGAGAAUGAUCCGCACAGUCCACCAGAAAAACGGUGCCAUUAAUCGCUGGGAGAUAAUUUUUCCAAACGCGACGUGCUUGCUCAUGCCCACCGAGAUCCAACAGAGGAUUGAGCAUCA
B13: chr11:79252212:79252213:+_ENSMUSG00000020716_ENSMUST00000071325|mus_hu|motif|central (ssRNA)
RNA: GGGAGUUCUACAGUCCGACGAUCACUAGAAGGAAUAUCACAUCCUACCCCGUAAAAAAGGAGAAAGUGACAGGAACUUCGGUCUGCCUGCUUAUUUUUAAGAAGAAAUUUAUUCCUGCAGAUCAAUAUUUCCCGCAACCACUUCAACAGAGGAUUGAGCAUCA
B14: chr5:93611588:93611589:-_ENSMUSG00000063015_ENSMUST00000058550|mus_hu|FALSE|FALSE (ssRNA)
RNA: GGGAGUUCUACAGUCCGACGAUCCUUGAGUCAUGGCUGUCACACUGAAAUAAUUUGUUCAUUCAACUGCAGUGAAAAUCAAUAUAGAUCAACAUGCAUAAAGUUCAGUAACUAUUAAAUGGAGAAGCAAGCAAAAGCAACAGGCAACAGAGGAUUGAGCAUCA

The other results are listed elsewhere or left out.

In the assay the target is T1, UNK ZnF1-3. Kind of assay: nsRBNS (natural sequence RNA bind-n-seq); RBNS binding buffer (assumed for nsRBNS): 25 mM Tris pH 7.5, 150 mM KCl, 3 mM MgCl2, 0.01% Triton X-100, 500 ug/ml BSA, 20 U/ml SUPERase-In, 4 C; UNK is unkempt and MSI1 is Musashi-1; names of the RNAs are library labels; protein concentration not given here; high values mean tight binding.
Molecule B1 displayed a binding signal of 0.699 enrichment R.
B2 showed a binding signal of 0.431 enrichment R.
Regarding B3, the binding signal was 2.64 enrichment R.
Regarding B4, the binding signal was found to be 1.11 enrichment R.
As to B5, the binding signal worked out at 0.753 enrichment R.
B6 showed a binding signal of 0.676 enrichment R.
To B7 belongs 0.803 enrichment R; to B8, 1.15 enrichment R.
To B9 belongs 0.947 enrichment R.
To B10 belongs 0.895 enrichment R.
For the molecule B11, the binding signal amounted to 0.927 enrichment R.
With B12 the figure was 1.42 enrichment R; with B13, 1.2 enrichment R.
To B14 belongs 2.2 enrichment R.
